# Assay results published in PubChem BioAssay AID651820 (National Center for Advancing Translational Sciences (NCATS), 2012).
# The whole screen tested about 340,000 compounds, of which about 12,000 (3.5%) were called active. The shares of active, inactive and inconclusive entries below differ from those in the screen. The call rests on the fitted dose curve; in most records, active means well fitted inhibition curve with a large enough effect; inconclusive means small, poorly fitted or top-dose-only effect, or another doubt; inactive means no such curve, though single readings can be large or run the other way. Potencies of inconclusive entries are left out as doubtful fits.
# Assay: qHTS Assay for Inhibitors of Hepatitis C Virus (HCV)
# Conditions: Huh7.5.1 HCVcc-Cre (HCVcc is cell-culture hepatitis C virus) infection, luciferase reporter, 44 h; activity change, negative = inhibition: at 41.8 µM (top of the series) unless noted
# In short: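 Antiviral activity was scored by luciferase reporter output from cells infected with HCVcc-Cre (~0.5 moi) in presence of compound, 44 h infection period, cells seeded 1,000/well 4 h prior.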
# On the % scale 0 is the no-effect control and ±100 the full control effect; potency means the concentration at half of the fitted maximal effect; tags describe the fitted curve by direction and shape.
SMILES,"activity change, negative = inhibition",Potency
CCC1(C)OCC(Cn2c3ccccc3c3ccccc32)O1 (centres undefined),inactive: -7.12%,
CCCCNC(=O)c1ccc(CS(=O)(=O)c2ccc(OC)cc2)o1,inactive: -1.92%,
Cc1ccsc1C(=O)OC(C)C(=O)Nc1ccc(Cl)cn1 (centres undefined),inactive: 2.87%,
C=CCNC(=O)CC(=O)N/N=C/c1cccc(Br)c1,inactive: 4.76%,
CCOc1ccc(-n2nc3ccc(NC(=O)c4ccc5c(c4)OCCO5)cc3n2)cc1,,active: 6.31 µM
O=[N+]([O-])c1ccc(Nc2nc(N/N=C\c3ccc4c(c3)OCO4)nc(N3CCCCC3)n2)cc1,,"inconclusive [inhibitor, partial curve]"
COCc1c(C(=O)OCC(=O)c2ccc[nH]2)oc2ccccc12,,"inconclusive [inhibitor, single point]"
CCCCS(=O)CC(O)COCC (centres undefined),,"inconclusive [inhibitor, full curve, poor fit]"
COc1ccc(OC)c(NC(=O)CN(c2ccc(C(C)C)cc2)S(=O)(=O)c2c(C)noc2C)c1,,"inconclusive [inhibitor, single point]"
COc1ccc(-c2csc(N)n2)cc1,,"inconclusive [inhibitor, single point]"
CN1CCN(C(=S)c2ccc(-c3cccc(Cl)c3Cl)o2)CC1,,"inconclusive [inhibitor, partial curve]"
CCn1cc(Br)c(C(=O)Nc2ccc(OC)cc2)n1,inactive: 6.82%,
Cc1ccc(NC(=O)c2ccc(NCc3ccc(F)cc3)nc2)cc1,inactive: -3.86%,
O=S(=O)(c1cnc(Cl)c(Cl)c1)N1CCCc2ccccc21,inactive: -20.5%,
NS(=O)(=O)c1ccc(CCNC(=O)c2cc([N+](=O)[O-])ccc2N2CCCCC2)cc1,,"inconclusive [inhibitor, full curve, poor fit]"
CCc1ccc(NC(=O)c2cnc(SC)nc2C)cc1,,"inconclusive [inhibitor, partial curve]"
COc1ccc(N2CCN(C(=O)c3ccc(Cn4c(=S)[nH]c5ccc(N6CCOCC6)cc5c4=O)cc3)CC2)cc1,,"inconclusive [inhibitor, single point]"
Cc1ccc(NC(=O)Nn2cnnc2)cc1Cl,inactive: 3%,
Cc1ccc(N2CCOCC2)c2c1C(=O)c1ccccc1C2=O,,"inconclusive [inhibitor, single point]"
CC(=O)c1ccccc1OCc1ccc(C(=O)c2ccccc2)cc1,,"inconclusive [inhibitor, single point]"
COc1ccccc1N1CC(C(=O)Nc2nnc(SCc3ccccn3)s2)CC1=O (centres undefined),inactive: 0.195%,
COc1ccc(CNC(=O)CN(C)S(=O)(=O)c2ccc3c(c2)n(C)c(=O)c(=O)n3C)cc1,inactive: 3.38%,
Cc1ccc2nc(NC(=O)C3CCN(C(=O)c4ccc(F)cc4)CC3)sc2c1,,"inconclusive [inhibitor, single point]"
Cc1ccc(SCCNC(=S)Nc2cc(C)cc(C)c2)cc1,inactive: -27.9%,
COc1ccc(C2SCCN2C(=S)Nc2cccc(Cl)c2)cc1 (centres undefined),,"inconclusive [inhibitor, single point]"

SMILES,"activity change, negative = inhibition",Potency
CSc1cccc(NC(=O)CCCn2c(=O)c3cccn3c3cccnc32)c1,,"inconclusive [inhibitor, single point]"
O=C(Nc1ccc2oc(-c3ccncc3)nc2c1)c1cccs1,,"inconclusive [inhibitor, full curve]"
COc1ccc(CC(=O)Nc2c(C(=O)N3CCN(c4ccccc4OC)CC3)oc3ccccc23)cc1OC,,"inconclusive [inhibitor, single point]"
O=C(NCCCCc1ccccc1)c1cccc(NC(=O)C2CCCC2)c1,,active: 8.91 µM
CCc1nc(SCc2ccc(Br)cc2)n[nH]1,inactive: -12.1%,
Cc1cccc(Cn2c(N3CCN(c4ccccc4)CC3)nc3c2c(=O)n(C)c(=O)n3C)c1,,active: 14.1 µM
Cc1ccc(SC(C)C(=O)Nc2ccc(S(=O)(=O)N3CCOCC3)cc2)cc1 (centres undefined),,"inconclusive [inhibitor, single point]"
Nc1c(C(=O)N/N=C/c2ccccc2Cl)oc2nc(-c3ccccc3)cc(-c3ccco3)c12,inconclusive: -41.6% [inhibitor],
COC(C[C@H]1O[C@H]1C(=O)[C@H](C)OCc1ccccc1)OC,inactive: 15.3%,
O=C(OCC(=O)N1CCOCC1)c1ccc2c(c1)OCCO2,inactive: 22%,
CC(O)CCC(=O)NNC(=S)Nc1ccccc1 (centres undefined),,"inconclusive [inhibitor, single point]"
COc1ccc(NC(=S)N2CCC(C(=O)c3ccc(F)cc3)CC2)cc1,,"inconclusive [inhibitor, single point]"
CCc1cc(C(=O)NC2CCCN(Cc3ccccc3F)C2)n(C)n1 (centres undefined),,active: 8.91 µM
CN(CCc1ccccc1)C(=O)c1cccc(NC(=O)Cc2cccc(NC(=O)C3CCCN(S(=O)(=O)c4cccc([N+](=O)[O-])c4)C3)c2)c1 (centres undefined),,active: 10 µM
COc1ccc(Br)cc1CNC(=O)Cn1nc(C)n2cccc2c1=O,,"inconclusive [inhibitor, single point]"
Nc1nc(-c2ccc(-c3ccccc3)cc2)cs1,,active: 10 µM
COc1cccc(NC(=O)CN(C)C(=O)c2oc3c(ccc4ccccc43)c2C)c1,inactive: -0.297%,
CCOC(=O)C1CCN(S(=O)(=O)c2c[nH]c(=O)[nH]c2=O)CC1,,"inconclusive [inhibitor, single point]"
Cc1nn(C)cc1C(=O)/C=C/c1ccc([N+](=O)[O-])cc1,,active: 22.4 µM
CCn1nc(C)cc1Nc1ccccc1,inactive: 12.9%,
CCSc1nc(-c2ccco2)ccc1C#N,,"inconclusive [inhibitor, single point]"
COc1ccccc1OCC(=O)Nc1sc2c(c1C(=O)NCC1CCCO1)CCC2 (centres undefined),,active: 0.891 µM
Cc1nc2cc(-c3cccc(F)c3)nn2c(C)c1CCC(=O)N1CCC2(CC1)OCCO2,inactive: -21.5%,
Cc1ccccc1Nc1nc(-c2cccnc2)nc2ccccc12,,"inconclusive [inhibitor, partial curve]"
COC(=O)C1=C(C)NC(C)=C(C(=O)OC(C)C)C1c1cccc2nonc12 (centres undefined),inactive: -25%,

SMILES,"activity change, negative = inhibition",Potency
CC1=C(C(=O)Nc2ccccc2C(=O)NC2CCC(C)CC2)SCCO1 (centres undefined),inactive: 5.04%,
Cc1ccc(S(=O)(=O)N2C[C@@H]3[C@H]4CC[C@H](C4)[C@@H]3[C@@H](C)[C@@H]2c2ccn(Cc3ccccc3)c2)cc1,,"inconclusive [inhibitor, full curve, poor fit]"
COc1ccc(NC(=O)NCc2ccc3c(c2)OCO3)cc1OC,,"inconclusive [inhibitor, single point]"
CN(C)CCOc1ccc(-c2c(-c3ccsc3)sc3ccccc23)cc1,,"inconclusive [inhibitor, single point]"
O=C(Nc1ncc2c(n1)-c1ccccc1CC2)c1cccc(Cl)c1,,"inconclusive [inhibitor, full curve]"
CC1=Nc2ccccc2/C1=C/c1sc(=S)n(-c2cccc(C(=O)O)c2)c1O,,"inconclusive [inhibitor, single point]"
CCn1cc(C(=O)NC(C)C)c(=O)c2cc(F)c(N3CCN(C(=O)c4ccco4)CC3)cc21,,"inconclusive [inhibitor, partial curve]"
CCn1c(=S)ccc2ccc(OC)cc21,,"inconclusive [inhibitor, single point]"
CC(=O)c1cccc(NC(=O)c2ccc(NC(=O)CCS(=O)(=O)c3cccs3)cc2)c1,inactive: 22.6%,
Cc1ccc(C)c(-c2csc(Nc3ncccn3)n2)c1,inactive: 3.21%,
Cc1cc(C)cc(NS(=O)(=O)c2ccc3c(c2)c(=O)n(C)c(=O)n3C)c1,,active: 6.31 µM
CC(=O)Nc1ccc(C(=O)NNC(=O)c2cccc(C)c2)cc1,inactive: 21%,
Cc1cc(N2CCN(c3ccccc3)CC2)nc2ccccc12,,"inconclusive [inhibitor, single point]"
Cc1cc(NC(=O)Nc2cc(C)nn2-c2ccccc2)n(-c2ccccc2)n1,,"inconclusive [inhibitor, full curve, poor fit]"
CCN(CC)c1ccc(NC(=O)CN2CCN(CC(=O)Nc3ccc(F)cc3)CC2)cc1,,"inconclusive [inhibitor, partial curve]"
CCc1cccc(C)c1NC(=S)NCc1ccc2c(c1)cc(C)n2C,,"inconclusive [inhibitor, single point]"
O=C(Nc1nc2cc3c(cc2s1)OCCO3)c1ccc(N2C(=O)CCC2=O)cc1,inactive: -21.4%,
CCC(=O)Nc1cccc(C2=NOC3(C2)C[C@@H](C(N)=O)N(C(=O)C(c2ccccc2)c2ccccc2)C3)c1 (some centres undefined),,"inconclusive [inhibitor, partial curve]"
CSc1cccc(NC(=O)CCn2c(=O)c3cccn3c3cccnc32)c1,,"inconclusive [inhibitor, partial curve]"
O=[N+]([O-])c1ccc(-c2nc3ccc([N+](=O)[O-])cc3[nH]2)cc1,,"inconclusive [inhibitor, full curve]"
O=C(CSc1nnc(-c2ccc(C(F)(F)F)cn2)s1)c1ccc(Cl)cc1,inactive: 10.7%,
CC(C)(C)C(CCl)C(=O)NN=C(c1ccccc1)c1ccccc1 (centres undefined),inactive: -7.93%,
Cc1cccn2c(=O)c3cc(S(=O)(=O)c4ccc(F)cc4)c(=N)n(Cc4ccco4)c3nc12,,active: 2.82 µM
O=C(Nc1ccc(S(=O)(=O)N2C[C@@H]3C[C@@H](C2)c2cccc(=O)n2C3)cc1)c1ccc(F)cc1,,"inconclusive [inhibitor, single point]"
